Results taken from publication PMC11589570, “Critical assessment of LC3/GABARAP ligands used for degrader development and ligandability of LC3/GABARAP binding pockets” (Nature Communications, 2024).
“And” between values parts separate entries of the source, which are not always exact repeats. Identical values can stand only once. Blank lines part the entries; values can stand above or below the molecule they belong to.

Key:
Type in all cases: binding
LC3A [1] = target: T1, LC3A (Homo sapiens, UniProt Q9H492); experiment: Spectral shift assay (Dianthus), cysteine-labelled protein; details: Repeat 1 and Repeat 2
Experimental: Affinity determination using spectral shift mode on Dianthus: To determine dissociation constants, the Dianthus instrument (NanoTemper Technologies GmbH, Germany) was used to monitor molecular interactions. […] Protein was labelled with RED-maleimide 2nd Generation (cat# MO-L014; NanoTemper Technologies GmbH). Labeling was carried out following the manufacturer protocol, using a 3:1 ratio dye:protein. […] Protein was purified in 30 mM HEPES, 100 mM NaCl, 0.05% Tween, pH 7.5. […] Measurements were performed in spectral shift mode with an LED excitation power of 100%. Data were analyzed using the DI.Screening Analysis Software (v.2.0.4) (NanoTemper Technologies GmbH, Germany) and quality criteria values including Δ Ratio, Signal-to-Noise-Ratio, Fit Saturation and KD values were determined.

LC3C = LC3C (Homo sapiens, UniProt Q9BXW4); experiment: FP assay with Cy5-labelled p62 LIR tracer (protein titration and tracer displacement); details: two replicate columns per compound
Chain of LC3C (Q9BXW4 1-126): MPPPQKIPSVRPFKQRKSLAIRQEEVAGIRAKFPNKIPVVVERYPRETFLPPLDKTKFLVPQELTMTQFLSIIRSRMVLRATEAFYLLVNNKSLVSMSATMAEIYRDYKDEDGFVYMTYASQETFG

GABARAPL1 = GABARAPL1 (Homo sapiens, UniProt Q9H0R8); experiment: as above; details: two replicate columns per compound
Chain of GABARAPL1 (Q9H0R8 whole entry): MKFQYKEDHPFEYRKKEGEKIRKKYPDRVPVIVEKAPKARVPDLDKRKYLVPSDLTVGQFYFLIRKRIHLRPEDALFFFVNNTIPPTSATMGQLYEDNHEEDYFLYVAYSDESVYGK

LC3A [2] = target: T1, LC3A; experiment: as above; details: two replicate columns per compound
LC3B = LC3B (Homo sapiens, UniProt Q9GZQ8); experiment: as above; details: two replicate columns per compound
[3] = compound 15.2588 nM titrated against LC3A
[4] = compound 30.5176 nM titrated against LC3A
[5] = compound 61.0352 nM titrated against LC3A
[6] = compound 122.07 nM titrated against LC3A
[7] = compound 244.141 nM titrated against LC3A
[8] = compound 488.281 nM titrated against LC3A
[9] = compound 976.562 nM titrated against LC3A
[10] = compound 1953.12 nM titrated against LC3A
[11] = compound 3906.25 nM titrated against LC3A
[12] = compound 7812.5 nM titrated against LC3A
[13] = compound 15625 nM titrated against LC3A
[14] = compound 31250 nM titrated against LC3A
[15] = compound 62500 nM titrated against LC3A
[16] = compound 125000 nM titrated against LC3A
[17] = compound 250000 nM titrated against LC3A
[18] = compound 500000 nM titrated against LC3A
[19] = log10 concentration [M] -3.82391
[20] = log10 concentration [M] -4.1549
[21] = log10 concentration [M] -4.60206
[22] = log10 concentration [M] -5.30103
[23] = log10 concentration [M] -5.69897
[24] = log10 concentration [M] -6.22185
[25] = log10 concentration [M] -6.69897
[26] = log10 concentration [M] -7.30103
[27] = log10 concentration [M] -7.79588
[28] = log10 concentration [M] -8.08092

Initial Fluorescence (LC3A [1]; [3]): 10979.177 and 9319.116
Ratio (spectral shift) (LC3A [1]; [3]): 0.9042 and 0.9182
Initial Fluorescence (LC3A [1]; [4]): 11396.190 and 9959.509
Ratio (spectral shift) (LC3A [1]; [4]): 0.9112 and 0.9028
Initial Fluorescence (LC3A [1]; [5]): 11631.822 and 10445.170
Ratio (spectral shift) (LC3A [1]; [5]): 0.9016 and 0.9158
Initial Fluorescence (LC3A [1]; [6]): 11488.392 and 10144.638
Ratio (spectral shift) (LC3A [1]; [6]): 0.8957 and 0.9295
Initial Fluorescence (LC3A [1]; [7]): 11928.102 and 11029.462
Ratio (spectral shift) (LC3A [1]; [7]): 0.8991 and 0.9219
Initial Fluorescence (LC3A [1]; [8]): 11722.134 and 10040.412
Ratio (spectral shift) (LC3A [1]; [8]): 0.8923 and 0.9025
Initial Fluorescence (LC3A [1]; [9]): 12214.168 and 10715.957
Ratio (spectral shift) (LC3A [1]; [9]): 0.8883 and 0.9059
Initial Fluorescence (LC3A [1]; [10]): 12022.579 and 10824.652
Ratio (spectral shift) (LC3A [1]; [10]): 0.8861 and 0.9018
Initial Fluorescence (LC3A [1]; [11]): 12371.707 and 12043.845
Ratio (spectral shift) (LC3A [1]; [11]): 0.8871 and 0.8914
Initial Fluorescence (LC3A [1]; [12]): 11958.680 and 12575.001
Ratio (spectral shift) (LC3A [1]; [12]): 0.8876 and 0.8953
Initial Fluorescence (LC3A [1]; [13]): 13372.464 and 11099.815
Ratio (spectral shift) (LC3A [1]; [13]): 0.8745 and 0.8787
Initial Fluorescence (LC3A [1]; [14]): 12231.151 and 11520.212
Ratio (spectral shift) (LC3A [1]; [14]): 0.8882 and 0.8762
Initial Fluorescence (LC3A [1]; [15]): 12678.003 and 12242.451
Ratio (spectral shift) (LC3A [1]; [15]): 0.869 and 0.8661
Initial Fluorescence (LC3A [1]; [16]): 12083.175 and 12172.338
Ratio (spectral shift) (LC3A [1]; [16]): 0.865 and 0.8622
Initial Fluorescence (LC3A [1]; [17]): 12437.239 and 12220.100
Ratio (spectral shift) (LC3A [1]; [17]): 0.8569 and 0.8648
Initial Fluorescence (LC3A [1]; [18]): 13363.896 and 12184.344
Ratio (spectral shift) (LC3A [1]; [18]): 0.865 and 0.8788
SMILES: O=C1CC(c2ccc(Cl)c(Cl)c2)CC(=O)C1=CNCCN1CCNCC1 (stereo not drawn) [Cov-3 (7)]

compound titration LC3C (displacement curve, FP signal) (LC3C; [19]): 20 and 19.8
compound titration LC3C (displacement curve, FP signal) (LC3C; [20]): 84.2 and 91.2
compound titration LC3C (displacement curve, FP signal) (LC3C; [21]): 92 and 99.6
compound titration LC3C (displacement curve, FP signal) (LC3C; log10 concentration [M] -5): 93.8 and 99.2
compound titration LC3C (displacement curve, FP signal) (LC3C; [22]): 94.2 and 97.8
compound titration LC3C (displacement curve, FP signal) (LC3C; [23]): 88.2 and 89.8
compound titration LC3C (displacement curve, FP signal) (LC3C; [24]): 94.6 and 93.4
compound titration LC3C (displacement curve, FP signal) (LC3C; [25]): 92.8 and 96.4
compound titration LC3C (displacement curve, FP signal) (LC3C; [26]): 100.4 and 98.2
compound titration LC3C (displacement curve, FP signal) (LC3C; [27]): 91.2 and 94.2
compound titration GABARAPL1 (displacement curve, FP signal) (GABARAPL1; [19]): 15.1429 and 17.8571
compound titration GABARAPL1 (displacement curve, FP signal) (GABARAPL1; [20]): 76.1429 and 73.7143
compound titration GABARAPL1 (displacement curve, FP signal) (GABARAPL1; [21]): 94.7143 and 100
compound titration GABARAPL1 (displacement curve, FP signal) (GABARAPL1; log10 concentration [M] -5): 98.8571 and 99.1429
SMILES: Cc1ccc(C)c(S(=O)(=O)Nc2cc(SCC(=O)O)c(O)c3ccccc23)c1 [compound 8]

compound titration LC3C (displacement curve, FP signal) (LC3C; [19]): 17.2 and 19.2
compound titration LC3C (displacement curve, FP signal) (LC3C; [20]): 66.8 and 75.6
compound titration LC3C (displacement curve, FP signal) (LC3C; [21]): 93.2 and 97.2
compound titration LC3C (displacement curve, FP signal) (LC3C; log10 concentration [M] -5): 92 and 97.2
compound titration LC3C (displacement curve, FP signal) (LC3C; [22]): 94.2 and 98
compound titration LC3C (displacement curve, FP signal) (LC3C; [23]): 86.2 and 91.6
compound titration LC3C (displacement curve, FP signal) (LC3C; [24]): 95 and 94.2
compound titration LC3C (displacement curve, FP signal) (LC3C; [25]): 98.6
compound titration LC3C (displacement curve, FP signal) (LC3C; [26]): 94.8 and 94.4
compound titration GABARAPL1 (displacement curve, FP signal) (GABARAPL1; [19]): 18.1429 and 16.1429
compound titration GABARAPL1 (displacement curve, FP signal) (GABARAPL1; [20]): 51.7143 and 57.5714
compound titration GABARAPL1 (displacement curve, FP signal) (GABARAPL1; [21]): 95.1429 and 101.571
compound titration GABARAPL1 (displacement curve, FP signal) (GABARAPL1; log10 concentration [M] -5): 95.5714 and 98.8571
compound titration LC3A (displacement curve, FP signal) (LC3A [2]; [19]): 77.1053 and 92.8947
compound titration LC3A (displacement curve, FP signal) (LC3A [2]; [20]): 90 and 97.6316
compound titration LC3A (displacement curve, FP signal) (LC3A [2]; [21]): 90.2632 and 101.316
compound titration LC3A (displacement curve, FP signal) (LC3A [2]; log10 concentration [M] -5): 93.9474 and 102.105
compound titration LC3A (displacement curve, FP signal) (LC3A [2]; [22]): 96.5789 and 101.316
compound titration LC3A (displacement curve, FP signal) (LC3A [2]; [23]): 95.2632 and 96.0526
compound titration LC3A (displacement curve, FP signal) (LC3A [2]; [24]): 94.4737 and 102.632
compound titration LC3A (displacement curve, FP signal) (LC3A [2]; [25]): 97.8947 and 102.105
compound titration LC3A (displacement curve, FP signal) (LC3A [2]; [26]): 104.737 and 100.526
compound titration LC3A (displacement curve, FP signal) (LC3A [2]; [27]): 103.947 and 95.7895
compound titration LC3A (displacement curve, FP signal) (LC3A [2]; [28]): 98.6842 and 102.368
compound titration LC3B (displacement curve, FP signal) (LC3B; [19]): 61.3158 and 76.8421
compound titration LC3B (displacement curve, FP signal) (LC3B; [20]): 89.2105 and 97.1053
compound titration LC3B (displacement curve, FP signal) (LC3B; [21]): 94.4737 and 99.2105
compound titration LC3B (displacement curve, FP signal) (LC3B; log10 concentration [M] -5): 99.2105 and 100.263
compound titration LC3B (displacement curve, FP signal) (LC3B; [22]): 98.1579 and 96.3158
compound titration LC3B (displacement curve, FP signal) (LC3B; [23]): 92.8947 and 95
compound titration LC3B (displacement curve, FP signal) (LC3B; [24]): 96.8421 and 97.3684
compound titration LC3B (displacement curve, FP signal) (LC3B; [25]): 100.789 and 95.2632
compound titration LC3B (displacement curve, FP signal) (LC3B; [26]): 94.7368 and 102.368
compound titration LC3B (displacement curve, FP signal) (LC3B; [27]): 98.6842 and 95.5263
compound titration LC3B (displacement curve, FP signal) (LC3B; [28]): 94.2105 and 97.1053
SMILES: CC(C)c1ccc(S(=O)(=O)Nc2cc(SCC(=O)O)c(O)c3ccccc23)cc1 [compound 9]
